According to PubChem BioAssay AID1508624 (National Center for Advancing Translational Sciences (NCATS), 2021):
Out of some 48,000 compounds screened, about 120 (0.25%) were called active. Another 4% or so got no clear call; they are omitted. Calls come from the whole dose curve; as a rule, active = well fitted activation curve with a large enough effect; inconclusive = small, poorly fitted or top-dose-only effect, or another doubt; inactive = no such curve, though single readings can be large or run the other way. Some of the results follow.

Experiment: Primary qHTS for Identification of Small Molecule Activators of Huntingtin-Antisense Promoter Activity; note: nearly all actives have a fitted effect of over 55% in size
Conditions: HEK293 HTT-AS promoter firefly luciferase reporter, 24 h; series mostly up to 57.5 µM; activity change, positive = activation: at the top concentration
Summary of the method: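 Firefly luciferase readout (Dual-Glo, 10 min RT) after 24 h, 37 °C compound exposure (final up to 57.5 uM) of HEK293 reporter cells cultured 24 h beforehand; PTC124 at 50 uM final as control inhibitor; activity scaled vehicle 0%, zero RLU -100%.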
Potency is the fitted concentration of half-maximal effect.

SMILES | activity change, positive = activation | Potency
COc1ccc(-c2c(C)nn3c(C(F)(F)F)cc(-c4ccccc4)nc23)cc1OC | inactive: -3.01% | 
Cc1ccc(NC(=O)c2c(C)oc3c2C2=NCCN2C=N3)cc1F | inactive: -3.97% | 
CN(CC(=O)NCc1ccc(F)cc1)S(=O)(=O)c1ccc2[nH]c3c(c2c1)CCCC3 | inactive: -41.7% | 
Cc1cccn2c(=O)cc(CSc3nnc(NC(=O)COc4ccccc4)s3)nc12 | inactive: -6.73% | 
COC(=O)c1cc2sccc2n1CC(=O)Nc1ccc(OC)c(OC)c1 | inactive: 2.21% | 
CCc1ccc(-n2c(=O)c3sc4ccccc4c3n(CC(=O)NCc3ccccc3)c2=O)cc1 | inactive: -7.41% | 
Cc1c(Cl)cccc1NC(c1ccc(F)cc1)c1nnc(-c2ccccc2)o1 (centres undefined) | inactive: -16.5% | 
O=C(Nc1cccnc1)c1cc(-c2ccc(Cl)cc2)on1 | inactive: -3.22% | 
O=C(c1ccc2c(c1)N(Cc1cccc(F)c1)C(=O)c1ccccc1S2)N1CCC2(CC1)OCCO2 | inactive: -29.3% | 
CCOC(=O)c1cc(S(=O)(=O)N2CCN(c3cccc(C)c3C)CC2)[nH]n1 | inactive: -21.2% | 
CNC(=O)c1c(NC(=O)c2nc(SCc3ccc(C)cc3)ncc2Cl)sc2c1CCCC2 | inactive: -6.75% | 
Cc1ccc(NC(=O)Nc2cn(CC(C)C)c(=O)c3ccccc23)cc1N(C)C | inactive: -24.2% | 
COc1ccc(-c2cc(C(C)=O)c(C)n2CCC(=O)NCc2ccc(C)cc2)cc1 | inactive: -24.6% | 
COc1cccc(CNC(=O)C2CCN(C(=O)c3cnn(-c4ccccc4)c3-n3cccc3)CC2)c1 | inactive: -41.1% | 
CCN(c1ccccc1C)S(=O)(=O)c1nnc(NC(=O)c2ccco2)s1 | inactive: -29.3% | 
COc1ccccc1OCC(=O)N1CCC(c2nc3ccccc3o2)CC1 | inactive: -9.93% | 
Cc1ccc(-n2ncc(C(=O)NC3CCCCC3)c2C2CCN(C(=O)OC(C)(C)C)CC2)cc1 | inactive: -5.05% | 
CCCS(=O)(=O)c1ncc(Cl)c(C(=O)Nc2c(C(=O)Nc3ccccc3)oc3ccccc23)n1 | inactive: -12% | 
CC(C)N(Cc1ccccc1)C(=O)Cn1ncc2c3ccccc3n(Cc3ccccc3)c2c1=O | inactive: -27.4% | 
COc1ccc(CCNC(=O)c2cn(C)c3ccc(S(=O)(=O)N4CCOCC4)cc3c2=O)cc1OC | inactive: 17.9% | 
CCOC(=O)c1ccc(NC(=O)CCCn2c(=O)c3cccn3c3cccnc32)cc1 | inactive: -20.4% | 
Cc1cccc(Cn2c(SCc3ccc(C(=O)NC4CCCC4)cc3)nc3cccnc32)c1 | inactive: -25.8% | 
Cc1nn(-c2ccc(Cl)cc2)c2nc(-c3cccnc3)cc(C(F)(F)F)c12 | inactive: -8.35% | 

SMILES | activity change, positive = activation | Potency
COc1ccc(NC(=O)C2CCN(S(=O)(=O)c3c(C)noc3/C=C/c3cccs3)CC2)cc1 | inactive: -14.2% | 
COc1ccc(OC)c(S(=O)(=O)NCC(c2ccco2)S(=O)(=O)c2ccccc2)c1 (centres undefined) | inactive: 7.12% | 
Cc1ccccc1OCCCCn1c(CCNC(=O)C(C)(C)C)nc2ccccc21 | inactive: -24.9% | 
COc1ccc(CC2=NN3C([C@@H](CCc4ccccc4)[C@@H](C)O)=NC(C)C3C(=O)N2)cc1OC (some centres undefined) |  | active: 7.69 µM
O=C(CSc1ccccc1)NCc1ccc2c(c1)CCN2C(=O)c1ccccc1 | inactive: 4.46% | 
COc1cccc(-c2noc(CCCC(=O)NCc3ccco3)n2)c1 | inactive: 9.2% | 
CN(Cc1ccccc1)C(=O)CCS(=O)(=O)c1ccc2c(c1)oc(=O)n2C | inactive: -5.86% | 
CCn1cc(S(=O)(=O)c2cccc(Cl)c2)c(=O)c2cc(F)c(N3CCN(C)CC3)cc21 | inactive: 0.266% | 
COC(=O)c1ccccc1NC(=O)c1ccc(-c2nc(CSc3ccc(C)cc3)c(C)o2)cc1 | inactive: 1.04% | 
Cc1ccc(-n2c(=O)c3c4c(sc3n(CC(=O)Nc3cccc(Cl)c3)c2=O)CCCCC4)cc1C | inactive: -19.1% | 
COc1cc(C)nc(-n2nc(C)cc2OC)n1 | inactive: -1.02% | 
CS(=O)(=O)Nc1ccc([N+](=O)[O-])cc1Oc1ccccc1 | inactive | 
Cc1cccc(C)c1OCC(=O)NC(Cc1c[nH]c2ccccc12)C(=O)O (centres undefined) | inactive: -1.73% | 
Cc1ccc(S(=O)(=O)NCc2nc3nc(C)cc(C)n3n2)cc1 | inactive: 1.82% | 
Cc1ccc(C)c(CN2CCCN(CC(=O)Nc3ccc(C)c(C)c3)S2(=O)=O)c1 | inactive: -28.1% | 
COc1cc(Cl)c(C)cc1NC(=O)CCc1nc2cccnc2n1Cc1cccs1 | inactive: -27.3% | 
CCN(CC)CCCNC(=O)c1ccc(Cn2c(=O)[nH]c3cc(OC)c(OC)cc3c2=O)cc1 | inactive: 2.38% | 
Cn1cc(C(=O)NCc2ccccc2Cl)c(=O)c2cc(S(=O)(=O)N3CCCCCC3)ccc21 | inactive: 5.95% [at 11.5 µM, percent change from vehicle, -100% = no light] | 
CCOC(=O)c1c(S(=O)(=O)N2CCC(C(=O)N3CCN(c4ccccc4F)CC3)CC2)c(C)n(C)c1C | inactive: 0% | 
CCn1cc(C(=O)O)c(=O)c2cc(F)c(N3CCNC(C)C3)c(F)c21 (centres undefined) | inactive | 
CC1=C(C(=O)Nc2ccccc2)C(c2ccc[nH]2)n2ncnc2N1 (centres undefined) | inactive: -4.3% | 
COc1ccccc1N1CCN(Cc2nnc(-c3ccccc3C)o2)CC1 | inactive: 11.5% | 
O=S(=O)(Nc1ccc(C(F)(F)F)cc1)c1ccc2c(c1)OCCO2 | inactive: -32% | 

SMILES | activity change, positive = activation | Potency
COCCCn1c(=O)c2sccc2n2c(CCCC(=O)Nc3cccc(C(F)(F)F)c3)nnc12 | inactive: -3.85% | 
O=C(NCCCc1nc2ccccc2n1Cc1cccc(Cl)c1)C1CCCCC1 | inactive: -26.4% | 
O=C(c1ccc2c(c1)N(Cc1ccc(Cl)cc1)C(=O)c1ccccc1S2=O)N1CCC(Cc2ccccc2)CC1 (centres undefined) | inactive: -41.5% | 
COc1cccc(-c2nn3c(=O)cc(CN4CCN(C(=O)/C=C/c5ccccc5)CC4)nc3s2)c1 | inactive: -7.82% | 
COc1ccc(NC(=O)Cn2nc(C(F)(F)F)c3c2CCCC3)cc1OC | inactive: -33.1% | 
CCOc1ccccc1NC(=O)C1=C(C)Nc2ncnn2C1c1cccs1 (centres undefined) | inactive: -23.6% | 
Cc1cccc(N2CCN(C(=O)c3ccc4c(Cl)c5c(nc4c3)CCCC5)CC2)c1C | inactive: -28.6% | 
COc1cc(NC(=O)c2nc3ccccc3n(C)c2=O)cc(OC)c1OC | inactive: 13.5% | 
CC(C)NC(=O)CN1C(=O)c2cccnc2Sc2ccccc21 | inactive: -7.95% | 
Cc1ccc(CCNC(=O)CCS(=O)(=O)c2cc3c(cc2Cl)NC(=O)CO3)cc1 | inactive: -6.34% | 
COc1ccc(CNC(=O)C2=CC(c3cccc(OC)c3)=NS(=O)(=O)N2C)cc1 | inactive: -12.7% | 
CC(=O)c1cccc(NC(=O)c2cc(C)nc3c2c(C)nn3-c2cccc(Cl)c2C)c1 | inactive: -26.5% | 
COC(=O)c1c(-c2ccc(Cl)cc2)noc1N1CCN(c2ccc(F)cc2)CC1 | inactive: -11% | 
Cc1ccc(-c2nc(-c3cc4cccc(OCc5ccccc5F)c4oc3=O)no2)cc1 | inactive: -3.98% | 
Cc1ccc(NC(=O)Cn2c(=O)n(Cc3ccc(C(=O)NCc4ccc5c(c4)OCO5)cc3)c(=O)c3ccccc32)cc1 | inactive: -7.04% | 
CCOc1ccc(CNC(=O)CCS(=O)(=O)c2ccc3c(c2)oc(=O)n3C)cc1 | inactive: 16.7% [at 11.5 µM, percent change from vehicle, -100% = no light] | 
COC(=O)c1ccc(NC(=O)C(=O)NCC(c2cccnc2)N2CCc3ccccc32)cc1 (centres undefined) | inactive: -54.9% | 
CCCOc1ccc(C(=O)Nc2ccc3oc(-c4ccc(N(C)C)cc4)nc3c2)cc1 | inactive: -0.568% | 
Cc1c(Cl)cccc1NC(=O)Cn1nnc(-c2nc(-c3ccccc3)no2)c1N | inactive: 10.3% | 
Cc1cccc(C)c1NC(=O)CSc1nc2ccccc2c2nc(CCc3c(C)n[nH]c3C)nn12 | inactive: 10.2% | 
CCC1=C[C@@H]2CN(C1)Cc1c([nH]c3ccccc13)[C@@](C(=O)OC)(c1cc3c(cc1OC)N(C)[C@H]1[C@@](O)(C(=O)OC)[C@H](OC(C)=O)[C@]4(CC)C=CCN5CC[C@]31[C@@H]54)C2 | inactive: -27.5% | 
CCCOc1ccc(OC(=O)c2cn(-c3ccc(OC)cc3)c(=O)c3ccccc23)cc1 | inactive: -21% | 
CCn1cc(C(=O)NCCc2ccc(C)cc2)c(=O)c2cc(S(=O)(=O)N3CCC(C)CC3)ccc21 | inactive: -12.8% | 

SMILES | activity change, positive = activation | Potency
CC(=O)N1CCN(c2ccc(OCc3nn(C)c(C)c3-c3cccc4c(CCCOc5cccc6ccccc56)c(C(=O)O)n(Cc5cccnc5)c34)cc2)CC1 | inactive: -15.5% | 
CC1=C(C(=O)OCC2CCCCC2)C(c2c(F)cccc2Cl)CC(=O)N1 (centres undefined) | inactive: -30.3% | 
COc1cc(OC)c(NC(=O)Nc2ccccc2OCc2cc(=O)n3cc(C)ccc3n2)cc1Cl | inactive: 10.5% | 
COc1ccc(CCNC(=O)CCc2c(C)nc3nc(C)nn3c2C)cc1OC | inactive: -7.4% | 
CCc1ccc(S(=O)(=O)c2nnn3c2nc(NC2CCCC2)c2sccc23)cc1 | inactive: -12% | 
COc1ccc(C)cc1NC(=O)CCS(=O)(=O)c1ccc2c(c1)CC(=O)N2C | inactive: -13.2% | 
COCCNC(=O)c1cc(Sc2ccc(F)cc2F)nc2ccccc12 | inactive: -11.1% | 
COc1ccc(-n2ccn(Cc3ccc(C)cc3)c(=O)c2=O)cc1OC | inactive: -16.2% | 
O=C(c1ccc2c(c1)N(Cc1ccc(F)cc1)C(=O)c1ccccc1S2(=O)=O)N1CCC(Cc2ccccc2)CC1 | inactive: -3.12% | 
O=C(CSc1ccc2ccccc2n1)Nc1nsc(-c2ccc(Cl)cc2)n1 | inactive: 0.947% | 
COc1ccc(NC(=O)CN(C)S(=O)(=O)c2ccc3[nH]c4c(c3c2)CCCC4)cc1Cl | inactive: -34.5% | 
CC(=O)N1c2nc(-c3ccco3)nn2C2(CCCCC2)[C@@H]2CCCC[C@@H]21 | inactive: -7.52% | 
COc1ccc(Cn2c(SCc3ccc(C(=O)NCc4ccccc4F)cc3)nc3cccnc32)cc1 | inactive: -24.1% | 
Cc1cccc(-n2c(=O)c3c(c4cc(C)ccc4n3C)n(Cc3ccccc3F)c2=O)c1 | inactive: -8.44% | 
COc1cc(C(=O)Nc2ccc(OCc3cc(=O)n4cc(C)sc4n3)cc2)cc(OC)c1OC | inactive: -12.1% | 
O=C(NCCc1ccccc1)c1c[nH]c2ccc(S(=O)(=O)Nc3ccccc3F)cc2c1=O | inactive: -29.1% | 
COc1ccc(NC(=O)Nc2nnc(N(C)C3CCCCC3)s2)c(OC)c1 | inactive: -5.19% | 
CCOC(=O)c1sc(NC(=O)COc2ccccc2Cl)c(C(=O)OCC)c1C | inactive: 3.01% | 
O=C(Nc1ccc(O)c(-c2nc3ccccc3o2)c1)c1ccco1 | inactive: -0.117% | 
Cc1ccccc1NC(=O)CSc1nc2c(oc3ccccc32)c(=O)n1-c1ccccc1F | inactive: -24% | 
